The whole screen tested about 110,000 compounds, of which about 230 (0.21%) showed an effect of 50% or more. This is one part of the list.
The molecules below were run against DPAP1 (Plasmodium falciparum, UniProt Q8IIJ9) (assay: primary screen, percent inhibition; read by cleavage of a fluorogenic dipeptide substrate; higher = more effect of the substance).
Parameters: species or system P. falciparum D10 trophozoite lysates; single well
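Note: 30 min substrate incubation versus DMSO and 10 µM JCP410 controls.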

Sequence of DPAP1 (Q8IIJ9 whole entry, looked up): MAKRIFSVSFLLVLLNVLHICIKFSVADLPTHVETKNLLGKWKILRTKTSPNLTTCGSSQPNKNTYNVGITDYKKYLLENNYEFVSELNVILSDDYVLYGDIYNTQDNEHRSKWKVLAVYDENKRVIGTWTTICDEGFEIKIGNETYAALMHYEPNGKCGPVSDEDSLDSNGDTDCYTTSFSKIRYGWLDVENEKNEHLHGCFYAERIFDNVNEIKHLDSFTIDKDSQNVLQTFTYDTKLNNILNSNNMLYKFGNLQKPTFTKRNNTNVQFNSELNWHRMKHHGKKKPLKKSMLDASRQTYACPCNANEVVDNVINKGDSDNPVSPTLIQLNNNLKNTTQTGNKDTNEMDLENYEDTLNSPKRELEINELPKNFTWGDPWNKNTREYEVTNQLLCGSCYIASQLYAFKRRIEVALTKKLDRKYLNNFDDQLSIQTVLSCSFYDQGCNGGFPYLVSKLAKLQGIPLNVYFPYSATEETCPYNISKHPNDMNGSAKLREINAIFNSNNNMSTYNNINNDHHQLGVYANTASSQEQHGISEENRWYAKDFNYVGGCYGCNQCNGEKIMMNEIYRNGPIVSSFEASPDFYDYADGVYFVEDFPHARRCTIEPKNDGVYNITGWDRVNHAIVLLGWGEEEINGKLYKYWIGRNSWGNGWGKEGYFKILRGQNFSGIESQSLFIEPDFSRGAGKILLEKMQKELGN

Going from `CC1=C(C(=O)Nc2cccc(C)n2)C(c2ccc(Cl)cc2)C2=C(O)CC(C)(C)CC2=N1` (stereo not shown) to `COc1ccc(CNC(=O)c2cc(-c3ccc(Cl)cc3)on2)cc1`, the “% Inhibition @ 10 uM” value falls from 5.89% to -5.52%.

Going from `COc1cc(NC(=O)C2CCN(C(=O)c3cnn(-c4ccccc4)c3-n3cccc3)CC2)ncn1` to `COc1ccc(/C=C2\C(=O)NC(=S)N(c3ccccc3)C2=O)cc1Br`, the “% Inhibition @ 10 uM” value falls from -3.35% to -5.2%.

First: CC(C)(C)c1ccccc1OCCCN1CCOCC1
Second: Cc1cccc(Cn2c(CN3CCOCC3)nc3c2c(=O)[nH]c(=O)n3C)c1
The “% Inhibition @ 10 uM” value of the first is higher: 2.26% for the first, -4.69% for the second.

Going from `O=C(c1ccc(F)cc1)N1CCN(c2ccc([N+](=O)[O-])cc2)CC1` to `CCOc1ccc(S(=O)(=O)N2CCN(c3cc(Cl)ccc3Cl)CC2)cc1`, the “% Inhibition @ 10 uM” value falls from 1.48% to 1.29%.

First: O=C(O)c1ccc2c(c1)C1C=CCC1C(c1ccccc1Cl)N2 (stereo not shown)
Second: O=C(O)c1ccc(-c2nc(S)c3c(n2)Oc2ccccc2C3)cc1
The “% Inhibition @ 10 uM” value of the first is lower: 7.98% for the first, 12.3% for the second.

First: Cc1cccc(-c2nnc(-c3cccc(C)c3)o2)c1
Second: COc1ccc(-c2cc(OC)c3ccccc3n2)cc1
The “% Inhibition @ 10 uM” value of the first is higher: 3.03% for the first, -1.36% for the second.

Going from `CCOc1ccc(NC(=O)c2cccnc2Cl)cc1` to `CCOc1ccccc1C(=O)Nc1ccccc1Cl`, the “% Inhibition @ 10 uM” value falls from 5.73% to -2.44%.

Compared with `O=C(Nc1nccs1)OCC1c2ccccc2-c2ccccc21`, `CCCNC(=O)/C(=C/c1cn(CC)c2ccccc12)NC(=O)c1ccccc1` is higher in “% Inhibition @ 10 uM” value: -9.91% for the first, -1.74% for the second.

Going from `Cc1ccccc1OCC(O)Cn1c(NCCO)nc2c1c(=O)[nH]c(=O)n2C` (stereo not shown) to `COc1ccc(CNCc2c(C(=O)O)n(Cc3ccccc3C)c3cc(C)ccc23)c(OC)c1`, the “% Inhibition @ 10 uM” value falls from 1.67% to 1.06%.

Going from `Cc1ccc(S(=O)(=O)c2nnn3c2nc(NCCC2=CCCCC2)c2ccccc23)cc1` to `CCOc1ccc(CNC(=O)c2cc3c(=O)n(Cc4cccnc4)ccc3nc2C)cc1`, the “% Inhibition @ 10 uM” value rises from -8.09% to -4.55%.

Going from `COc1cc(C=C(C#N)C#N)ccc1OCc1cccc2ccccc12` to `Cc1cccc(/C=C2/SC(=O)N(Cc3ccccc3C#N)C2=O)n1`, the “% Inhibition @ 10 uM” value falls from -4.48% to -5.9%.

Going from `CC1CCCCN1CCCNC(=O)CNC(=S)N1CC2CC(C1)c1cccc(=O)n1C2` (stereo not shown) to `COc1ccccc1/C=C/CN1C[C@@H]2C[C@H](C1)c1cccc(=O)n1C2`, the “% Inhibition @ 10 uM” value rises from -5.92% to -2.48%.

Going from `CC1=C(C(=O)OCc2ccc3c(c2)OCO3)C(c2cccc(Cl)c2Cl)CC(=O)N1` (stereo not shown) to `CC(NC(=O)c1cccnc1)c1cc2c(cc1Cl)OCCCO2` (stereo not shown), the “% Inhibition @ 10 uM” value falls from -2.24% to -3.09%.

First: Cc1ccc(NC(=O)/C=C/C(=O)O)cc1F
Second: CCNCC(=O)N1c2ccccc2CCc2ccc(NC(=O)OC)cc21
The “% Inhibition @ 10 uM” value of the first is lower: -3.03% for the first, 4.12% for the second.

Going from `CCCN1CCC(NCc2cccc(C(F)(F)F)c2)CC1` to `Cc1ccc(C2=NN(CCC(=O)NCCN3CCOCC3)C(=O)CC2)cc1`, the “% Inhibition @ 10 uM” value rises from 2.7% to 3.24%.

First: N#Cc1c(S)nc2c(c1/C=C/c1ccccc1)CCC2
Second: Cc1c(-c2ccccc2)nc(Cl)c(C#N)c1C#N
The “% Inhibition @ 10 uM” value of the first is higher: 17.3% for the first, -4.24% for the second.

Going from `CN(C)CCCOC(=O)/C=C/c1ccccc1` to `N#CC1(C#N)[C@H](C(N)=O)[C@H]1c1ccccc1Cl`, the “% Inhibition @ 10 uM” value falls from 3.01% to -0.197%.

First: Cc1c2cnn(CC(=O)N3CCC(N4CCCCC4)CC3)c(=O)c2c(C)n1Cc1ccc(F)cc1
Second: Cc1ccc(CCNc2cnn(C34C[C@@H]5C[C@@H](CC(CC(=O)O)(C5)C3)C4)c(=O)c2Cl)cc1
The “% Inhibition @ 10 uM” value of the first is lower: 1.22% for the first, 7.64% for the second.

Going from `CCOC(=O)C(C)Oc1cc2occ(-c3nc(C)cs3)c(=O)c2cc1CC` (stereo not shown) to `CCOC(=O)c1c(NC(=O)c2cc3ccccc3o2)sc(C(C)=O)c1C`, the “% Inhibition @ 10 uM” value falls from 0.00784% to -4.13%.

First: Cc1cc(C)n2nc(S(=O)(=O)Cc3ccc(Cl)cc3)nc2n1
Second: Oc1nnc(SCc2ccc(Cl)cc2)c(O)n1
The “% Inhibition @ 10 uM” value of the first is lower: 0.727% for the first, 0.997% for the second.

Going from `ClC(Cl)(Cl)c1nc(C(Cl)(Cl)Cl)nc(C(Cl)(Cl)Cl)n1` to `Nc1nc(Cl)nc(Nc2ccccc2SCCC(F)(F)F)n1`, the “% Inhibition @ 10 uM” value falls from 21.5% to -2.77%.

Compared with `Cc1cc(C)cc(Oc2nc3c(C)cccn3c(=O)c2/C=C(\C#N)C(=O)N2CCCCC2)c1`, `CCc1cc2c(cc3c(=O)n(CC(=O)NC4CCCCCC4)nc(CC)n32)s1` is lower in “% Inhibition @ 10 uM” value: 3.63% for the first, 0.0198% for the second.

Compared with `COc1cc(Cl)cc2c1Sc1ccccc1CC2N1CCNCC1` (stereo not shown), `COC(=O)c1ccnc(C2CCCCC2=O)c1` (stereo not shown) is lower in “% Inhibition @ 10 uM” value: 4.03% for the first, -3.75% for the second.

Going from `Cc1ccc(C2=NC3(CCC(C)CC3)NC2=S)cc1` (stereo not shown) to `Nc1nc(-c2cccc([N+](=O)[O-])c2)cs1`, the “% Inhibition @ 10 uM” value falls from 10.9% to 2.4%.

With `CC(C)C[C@H](NC(=O)OCc1c(Cl)cccc1Cl)C(=O)NCC#N` the “% Inhibition @ 10 uM” value was 1.71%.

Source: paper PMC6919601, “Identification of Plasmodium dipeptidyl aminopeptidase allosteric inhibitors by high throughput screening” (PLoS ONE, 2019)
